# Assay results: PubChem BioAssay AID651820 (National Center for Advancing Translational Sciences (NCATS), 2012)
# About 12,000 (3.5%) of roughly 340,000 compounds were called active. Inconclusive means that the source gave no clear call. Such entries were picked first, then a sample of the others. Calls follow the shape of the dose curve; as a rule, active = well fitted inhibition curve with a large enough effect; inconclusive = small, poorly fitted or top-dose-only effect, or another doubt; inactive = no such curve, though single readings can be large or run the other way. No potency is given beside an inconclusive call; the fits are too rough.
# Assay: qHTS Assay for Inhibitors of Hepatitis C Virus (HCV)
# Settings: Huh7.5.1 HCVcc-Cre (HCVcc is cell-culture hepatitis C virus) infection, luciferase reporter, 44 h; activity change, negative = inhibition: at 41.8 µM (top of the series) unless noted
# Procedure, shortened: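 Infectious HCV cell culture screen: compound-treated cells (1,000/well, pre-plated 4 h) are infected with HCVcc-Cre at roughly 0.5 moi and grown 44 h. Infection is quantified by luciferase signal after 15 min substrate incubation at room temperature.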
# % is scaled to controls: 0 for no effect and ±100 for the full control effect; potency is read from the fitted curve at half-maximal effect; tags tell the direction and shape of the fitted curve.
Compound,"activity change, negative = inhibition",Potency
O=C(Nc1ccc2c(c1)OCO2)C1CCN(C(=O)c2ccc([N+](=O)[O-])cc2)CC1,inactive: 1.08%,
COc1cccc(NC(=O)CN(C)C(=O)c2ccccn2)c1,inactive: 1.26%,
CCOc1ccc(C(=O)NC(=S)Nc2cccnc2)cc1[N+](=O)[O-],,"inconclusive [inhibitor, partial curve]"
Cn1c(Cl)cnc1C1CC(=O)c2cc(Cl)ccc2O1 (stereo not given),,"inconclusive [inhibitor, partial curve, poor fit]"
O=[N+]([O-])c1ccc(Oc2ccc(-c3cnc4ccccc4n3)cc2[N+](=O)[O-])cc1,,"inconclusive [inhibitor, single point]"
CC1CCc2nc(NCCO)nc(C(F)(F)F)c2C1 (stereo not given),,"inconclusive [inhibitor, full curve, poor fit]"
CC1CCC(NC(=O)c2nn(C)c3c2CSc2ccccc2-3)CC1 (stereo not given),,"inconclusive [inhibitor, partial curve]"
CC(NC(=O)c1ccccc1Br)c1ccc2c(c1)CCCC2 (stereo not given),,"inconclusive [inhibitor, single point]"
CNC(=O)/C(C#N)=C\c1ccc(CNS(=O)(=O)c2ccccc2)o1,inactive: 23.9%,
COc1ccc(CCN=C(N)Nc2nc(C)cc(C)n2)cc1,,"inconclusive [inhibitor, single point]"
COc1ccc(C2CC(c3cccs3)=Nc3ccccc3S2)cc1 (stereo not given),,"inconclusive [inhibitor, partial curve]"
COc1ccccc1-n1c(SCC(=O)Nc2ccc(F)cc2)nc2c(c1=O)SCC2,,"inconclusive [inhibitor, single point]"
Cc1noc(C)c1CSc1nnc(-c2ccncc2)n1-c1cccc(Cl)c1C,inactive: -2.2%,
Nc1cc(-c2ccccc2)nn1Cc1ccc(Cl)cc1,,"inconclusive [inhibitor, partial curve]"
O=S(=O)(c1ccc(N=C2NN=C(c3cc(F)ccc3F)CS2)cc1)N1CCOCC1,,active: 22.4 µM
CN(C)CCCn1c(SCC(=O)Nc2sc3c(c2C#N)CCCC3)nnc1-c1ccncc1,,"inconclusive [inhibitor, single point]"
COc1ccc(CCC(=O)Nc2cc3c4c(c2)CCC(=O)N4CCC3)cc1,inactive: -8.97%,
CCOC(=O)c1c(NC(=O)CSc2nnc(-c3cccnc3)n2Cc2ccco2)sc(C)c1C,,"inconclusive [inhibitor, partial curve]"
N#CC1=CN(Cc2ccccc2)C=C(/C=N/Nc2ccccc2)C1,,"inconclusive [inhibitor, partial curve]"
CCOC(=O)c1c(C)[nH]c(C)c1C(=O)CSc1nc2ccccc2c(=O)n1-c1ccc(C)cc1,,"inconclusive [inhibitor, single point]"
COc1ccc(-c2nnc(SCc3ccc(C(=O)O)cc3)n2N)cc1,inactive: 30.2%,
Cc1occc1C(=O)Nc1sc2c(c1C(N)=O)CCCCC2,,"inconclusive [inhibitor, partial curve]"
CCN1CC=C(c2c[nH]c3ccccc23)CC1,,active: 10 µM
COc1ccc(CCNc2nc(-c3ccccn3)cs2)cc1OC,,"inconclusive [inhibitor, single point]"

Compound,"activity change, negative = inhibition",Potency
N#Cc1ccc(NC(=O)Nc2cccc(C#N)c2)cc1,,active: 10 µM
CCOc1ccc(C2SCC(=O)Nc3c2c(=O)[nH]n3C2CCCCCC2)cc1 (stereo not given),inactive: 11.7%,
CCOC(=O)c1ccc(S(=O)(=O)NCC(c2ccc(N(C)C)cc2)c2c[nH]c3ccccc23)cc1 (stereo not given),inactive: -6.41%,
O=C(Nc1ccc2c(c1)OCO2)C1Cc2ccccc2CN1S(=O)(=O)c1cccs1 (stereo not given),inactive: -17.3%,
COc1ccccc1C1(CC(=O)Nc2nccs2)CCOC(C(C)C)C1 (stereo not given),,"inconclusive [inhibitor, single point]"
CN(C)CCCNc1oc(-c2ccccc2Cl)nc1S(=O)(=O)c1ccccc1,,"inconclusive [inhibitor, partial curve]"
COc1ccc(C(=O)NC2=Nc3ccccc3N=C(C)C2c2ccccc2)cc1 (stereo not given),,"inconclusive [inhibitor, single point]"
COc1ccc(S(=O)(=O)N2CCOCC2)cc1NC(=O)/C=C/c1ccccc1,inconclusive: -39.9% [inhibitor],
CC1(C)OC(c2ccccc2)=C/C(=C/C=N/NC(=O)c2ccncc2)O1,,"inconclusive [inhibitor, partial curve, poor fit]"
CCOc1ccc(C2Sc3ccccc3NC3=C2C(=O)OC3)cc1 (stereo not given),,"inconclusive [inhibitor, single point]"
NS(=O)(=O)c1ccc(CCNC(=O)C2CCCCC2)cc1,,"inconclusive [inhibitor, partial curve]"
COc1cccc(NC(=O)Nc2cc(C)ccc2F)c1,,"inconclusive [inhibitor, single point]"
CCN(CC)C(=O)C1CCCN(C(=O)c2cc(COc3ccc4ncccc4c3)on2)C1 (stereo not given),,"inconclusive [inhibitor, single point]"
O=C(CCSc1nc(-c2ccco2)cc(C(F)(F)F)n1)N1CCN(c2ccccc2)CC1,,"inconclusive [inhibitor, partial curve]"
CCOC(=O)c1nc(NCc2cccnc2)c2ccccc2n1,inactive: 9.08%,
COC(=O)C1CCN(C(=O)c2cc(-c3ccc(Cl)s3)nc3ccccc23)CC1,,"inconclusive [inhibitor, single point]"
CSc1nc(Oc2ccc3ccccc3c2)c2ccccc2n1,,"inconclusive [inhibitor, partial curve, poor fit]"
CC(C)(O)C#Cc1ccc([C@@H]2C[C@H]3CN(c4ccccc4)C(=O)[C@]34CCCN24)s1,,"inconclusive [inhibitor, full curve]"
CCn1cc(C(=O)NCc2ccccc2)c(=O)c2cc(F)c(N3CCN(C(=O)c4ccco4)CC3)cc21,,active: 11.2 µM
Cc1cccc(CC2SC(N3CCN(c4ccccc4)CC3)=NC2=O)c1 (stereo not given),inactive: 12.1%,
O=C(CSc1ncnc2c1cnn2-c1ccccc1)Nc1ccccc1,,"inconclusive [inhibitor, single point]"
CC(=O)c1c(N2CCOCC2)[nH]c(-c2ccccc2)nc1=S,inactive: 1.21%,
O=C(c1cccnc1)n1nc(NCc2ccccc2)nc1NCc1ccccc1,,"inconclusive [inhibitor, full curve, poor fit]"
Cc1nnc2c(NC(C)C)nc3ccccc3n12,,"inconclusive [inhibitor, single point]"

Compound,"activity change, negative = inhibition",Potency
CCC1(CC)Cc2ccccc2-c2nc(NCCO)[nH]c(=O)c21,,"inconclusive [inhibitor, single point]"
O=C(COC(=O)c1nc(Cl)c(Cl)c(Cl)c1Cl)c1ccc[nH]1,,"inconclusive [inhibitor, single point]"
Cn1nc(C(F)(F)F)c(C(=O)Nc2cccc(Cl)c2)c1Cl,inactive: -11.5%,
Cc1cc(C(=O)OCC(=O)Nc2cccc(F)c2)c(C)n1C1CC1,,"inconclusive [inhibitor, partial curve]"
Cc1ccc(-n2ncc3c(=O)n(CC(=O)N4CCN(C(=O)c5ccco5)CC4)cnc32)cc1,inactive: 16.1%,
Cc1ccc(S(=O)(=O)Nc2nc3c(s2)C(=O)CC(C)(C)C3)cc1,inactive: 23%,
CCCCCCCCCCOC(=O)Cn1c(COc2ccccc2OC)[n+](C)c2ccccc21,,active: 14.1 µM
Cc1cc2n(n1)C(c1ccccc1)Nc1ccccc1-2 (stereo not given),,active: 25.1 µM
c1ccc(CN2CCOCCOCCOCCOCC2)cc1,inactive: 23.7%,
COc1ccc2c(c1OC)c(=O)n1c3ccc(OC(C)C(=O)NCCN4CCOCC4)cc3c3ccnc2c31 (stereo not given),,"inconclusive [inhibitor, partial curve, poor fit]"
O=C(Nc1ccc(N2CCN(C(=O)c3cccs3)CC2)cc1)c1ccc(Br)o1,,"inconclusive [inhibitor, single point]"
CSc1nc(SCC(=O)NCc2ccco2)c2c3c(sc2n1)COC(C)(C)C3,,"inconclusive [inhibitor, partial curve]"
O=C1c2ccccc2CN1c1ccccc1,inactive: 5.96%,
COc1cc2c(cc1NC(=O)c1cccnc1)CCCC2,,"inconclusive [inhibitor, single point]"
COc1cc2c(O)c3c(c(-c4ccc5c(c4)OCO5)c2cc1OC)C(=O)OC3,,"inconclusive [inhibitor, full curve, poor fit]"
COc1ccc(N2CCN(S(=O)(=O)c3ccc4c(c3)NC(=O)CS4)CC2)cc1,inactive: -29.1%,
CN(CC(=O)Nc1ccc(S(=O)(=O)N2CCCC2)cc1)Cc1ccc(Cl)c(Cl)c1,,"inconclusive [inhibitor, single point]"
CCCN(CC1CC1)C(=O)CSc1ncnc2sc(C)c(C)c12,,"inconclusive [inhibitor, single point]"
c1ccc(CCCNc2ncnc3nc[nH]c23)cc1,,"inconclusive [inhibitor, single point]"
O=C(CSc1ncc(-c2ccc(F)cc2)n1Cc1ccco1)Nc1ccc2c(c1)OCO2,,"inconclusive [inhibitor, single point]"
N#Cc1c(NC(=O)CSc2ncn[nH]2)sc2c1CCCCC2,,"inconclusive [inhibitor, single point]"
CCCCOC(=O)c1c(C)oc2ccc(NS(=O)(=O)c3ccc4c5c(cccc35)C(=O)N4)cc12,,"inconclusive [inhibitor, single point]"
